These results are taken from PMC9911399, “Two distinct binding modes provide the RNA-binding protein RbFox with extraordinary sequence specificity”.

Positions count from the first letter of the chain named. The list shows a part of the results.

First the molecules themselves.
B1: UGCGAUA (DNA:RNA)
RNA: GGGAGACCGGAAUUCAGAUUGUCCUGCGAUAUUAAAUCCCGUCGUAGCCACCA
DNA 1: CAATCTGAATTCCGGTCTCCC
DNA 2: TGGTGGCTACGACGGGATT
B2: AAACUCU (DNA:RNA)
RNA: GGGAGACCGGAAUUCAGAUUGUCCAAACUCUUUAAAUCCCGUCGUAGCCACCA
DNA 1: CAATCTGAATTCCGGTCTCCC
DNA 2: TGGTGGCTACGACGGGATT
B3: AUUUAUG (DNA:RNA)
RNA: B1 RNA with U25A, G26U, C27U, G28U, A31G
DNA 1: CAATCTGAATTCCGGTCTCCC
DNA 2: TGGTGGCTACGACGGGATT
B4: GUAGUGA (DNA:RNA)
RNA: B2 RNA with A25G, A26U, C28G, C30G, U31A
DNA 1: CAATCTGAATTCCGGTCTCCC
DNA 2: TGGTGGCTACGACGGGATT
B5: UCCUAAA (DNA:RNA)
RNA: B1 RNA with G26C, G28U, U30A
DNA 1: CAATCTGAATTCCGGTCTCCC
DNA 2: TGGTGGCTACGACGGGATT
B6: UGCGAUU (DNA:RNA)
RNA: B1 RNA with A31U
DNA 1: CAATCTGAATTCCGGTCTCCC
DNA 2: TGGTGGCTACGACGGGATT
B7: GGCGGCA (DNA:RNA)
RNA: B1 RNA with U25G, A29G, U30C
DNA 1: CAATCTGAATTCCGGTCTCCC
DNA 2: TGGTGGCTACGACGGGATT
B8: GUAAAGA (DNA:RNA)
RNA: B1 RNA with U25G, G26U, C27A, G28A, U30G
DNA 1: CAATCTGAATTCCGGTCTCCC
DNA 2: TGGTGGCTACGACGGGATT
B9: GGGGGUU (DNA:RNA)
RNA: B1 RNA with U25G, C27G, A29G, A31U
DNA 1: CAATCTGAATTCCGGTCTCCC
DNA 2: TGGTGGCTACGACGGGATT
B10: GGGGCUC (DNA:RNA)
RNA: B1 RNA with U25G, C27G, A29C, A31C
DNA 1: CAATCTGAATTCCGGTCTCCC
DNA 2: TGGTGGCTACGACGGGATT
B11: UUAUACU (DNA:RNA)
RNA: B2 RNA with A25U, A26U, C28U, U29A
DNA 1: CAATCTGAATTCCGGTCTCCC
DNA 2: TGGTGGCTACGACGGGATT
B12: UUCUUCA (DNA:RNA)
RNA: B1 RNA with G26U, G28U, A29U, U30C
DNA 1: CAATCTGAATTCCGGTCTCCC
DNA 2: TGGTGGCTACGACGGGATT
B13: ACAUUGG (DNA:RNA)
RNA: B2 RNA with A26C, C28U, C30G, U31G
DNA 1: CAATCTGAATTCCGGTCTCCC
DNA 2: TGGTGGCTACGACGGGATT
B14: GGACUCG (DNA:RNA)
RNA: B2 RNA with A25G, A26G, U31G
DNA 1: CAATCTGAATTCCGGTCTCCC
DNA 2: TGGTGGCTACGACGGGATT
B15: GGACGGA (DNA:RNA)
RNA: B2 RNA with A25G, A26G, U29G, C30G, U31A
DNA 1: CAATCTGAATTCCGGTCTCCC
DNA 2: TGGTGGCTACGACGGGATT
B16: CAAAGCC (DNA:RNA)
RNA: B2 RNA with A25C, C28A, U29G, U31C
DNA 1: CAATCTGAATTCCGGTCTCCC
DNA 2: TGGTGGCTACGACGGGATT
B17: UAUUUGU (DNA:RNA)
RNA: B2 RNA with A25U, A27U, C28U, C30G
DNA 1: CAATCTGAATTCCGGTCTCCC
DNA 2: TGGTGGCTACGACGGGATT
B18: AUGAUCG (DNA:RNA)
RNA: B2 RNA with A26U, A27G, C28A, U31G
DNA 1: CAATCTGAATTCCGGTCTCCC
DNA 2: TGGTGGCTACGACGGGATT
B19: CACCCUG (DNA:RNA)
RNA: B2 RNA with A25C, A27C, U29C, C30U, U31G
DNA 1: CAATCTGAATTCCGGTCTCCC
DNA 2: TGGTGGCTACGACGGGATT
B20: GCAGCGU (DNA:RNA)
RNA: B2 RNA with A25G, A26C, C28G, U29C, C30G
DNA 1: CAATCTGAATTCCGGTCTCCC
DNA 2: TGGTGGCTACGACGGGATT
B21: UGAUACA (DNA:RNA)
RNA: B1 RNA with C27A, G28U, U30C
DNA 1: CAATCTGAATTCCGGTCTCCC
DNA 2: TGGTGGCTACGACGGGATT
B22: UCCGGAU (DNA:RNA)
RNA: B1 RNA with G26C, A29G, U30A, A31U
DNA 1: CAATCTGAATTCCGGTCTCCC
DNA 2: TGGTGGCTACGACGGGATT
B23: UGAGUUC (DNA:RNA)
RNA: B1 RNA with C27A, A29U, A31C
DNA 1: CAATCTGAATTCCGGTCTCCC
DNA 2: TGGTGGCTACGACGGGATT
B24: CAUAUCC (DNA:RNA)
RNA: B2 RNA with A25C, A27U, C28A, U31C
DNA 1: CAATCTGAATTCCGGTCTCCC
DNA 2: TGGTGGCTACGACGGGATT
B25: GCGCUAU (DNA:RNA)
RNA: B2 RNA with A25G, A26C, A27G, C30A
DNA 1: CAATCTGAATTCCGGTCTCCC
DNA 2: TGGTGGCTACGACGGGATT
B26: ACUACAC (DNA:RNA)
RNA: B2 RNA with A26C, A27U, C28A, U29C, C30A, U31C
DNA 1: CAATCTGAATTCCGGTCTCCC
DNA 2: TGGTGGCTACGACGGGATT
B27: CAGGCGG (DNA:RNA)
RNA: B2 RNA with A25C, A27G, C28G, U29C, C30G, U31G
DNA 1: CAATCTGAATTCCGGTCTCCC
DNA 2: TGGTGGCTACGACGGGATT
B28: CACCUCG (DNA:RNA)
RNA: B2 RNA with A25C, A27C, U31G
DNA 1: CAATCTGAATTCCGGTCTCCC
DNA 2: TGGTGGCTACGACGGGATT
B29: UCCCAUU (DNA:RNA)
RNA: B1 RNA with G26C, G28C, A31U
DNA 1: CAATCTGAATTCCGGTCTCCC
DNA 2: TGGTGGCTACGACGGGATT
B30: GCACGAU (DNA:RNA)
RNA: B2 RNA with A25G, A26C, U29G, C30A
DNA 1: CAATCTGAATTCCGGTCTCCC
DNA 2: TGGTGGCTACGACGGGATT
B31: GGGAGUC (DNA:RNA)
RNA: B1 RNA with U25G, C27G, G28A, A29G, A31C
DNA 1: CAATCTGAATTCCGGTCTCCC
DNA 2: TGGTGGCTACGACGGGATT

This assay addresses T1, RBFOX1 RRM (Homo sapiens, UniProt Q9NWB1 109-208).
T1 sequence: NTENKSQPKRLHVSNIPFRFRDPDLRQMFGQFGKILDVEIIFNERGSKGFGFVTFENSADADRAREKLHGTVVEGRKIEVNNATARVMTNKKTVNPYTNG
As to the kind of experiment: EMSA; HiTS-Eq, 1 nM pool, 10 min; buffer printed only for the single-RNA assays: 10 mM Tris pH 7.5, 150 mM NaCl, 3.4 mM EDTA, 0.001% NP-40, 30 C. The conditions noted are these: tags: His6 N-terminal (pET28a); label: 5' 32P. The method in brief:
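Purified RbFox RRM, wild type or mutant, was incubated for 10 min in 50 µL with 1 nM of a 5′-radiolabelled RNA pool carrying 7 randomized nucleotides, whose flanks were annealed to DNA oligonucleotides, over a series of increasing protein concentrations. Unbound RNA was resolved on 8% native PAGE, cut out, reverse-transcribed, barcoded by PCR and sequenced on an Illumina HiSeq 2500. Relative association constants were derived from changes in read counts for each RNA species versus the control reaction and normalised to the cognate motif.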
In general terms: Mobility shift assays separate free from complexed probe on a gel.
For the molecule B1, the binding signal was 0.017 KA relative to UGCAUGU. The figure for B2 is 0.0013 KA relative to UGCAUGU; for B3 it is 0.0107 KA relative to UGCAUGU; for B4 it is 0.0104 KA relative to UGCAUGU. The figure for B5 is 0.00271 KA relative to UGCAUGU.

On to B6, for which the binding signal was 0.0215 KA relative to UGCAUGU.

On to B7, for which the binding signal was 0.0254 KA relative to UGCAUGU. Regarding B8, the binding signal is 0.0108 KA relative to UGCAUGU. The figure for B9 is 0.0471 KA relative to UGCAUGU.

In the case of B10, the binding signal is 0.0466 KA relative to UGCAUGU. The figure for B11 is 0.00401 KA relative to UGCAUGU. The figure for B12 is 0.00614 KA relative to UGCAUGU; for B13 it is 0.009 KA relative to UGCAUGU; for B14 it is 0.0209 KA relative to UGCAUGU. The figure for B15 is 0.0127 KA relative to UGCAUGU; for B16 it is 0.00372 KA relative to UGCAUGU.

With B17, the binding signal was 0.0237 KA relative to UGCAUGU. The figure for B18 is 0.0158 KA relative to UGCAUGU. The figure for B19 is 0.00418 KA relative to UGCAUGU; for B20 it is 0.0111 KA relative to UGCAUGU. The figure for B21 is 0.013 KA relative to UGCAUGU. With B22, the binding signal was 0.00448 KA relative to UGCAUGU. Turning to B23, the binding signal is 0.019 KA relative to UGCAUGU. With B24, the binding signal was 0.000538 KA relative to UGCAUGU. The figure for B25 is 0.00887 KA relative to UGCAUGU; for B26 it is 0.000277 KA relative to UGCAUGU; for B27 it is 0.00865 KA relative to UGCAUGU. The figure for B28 is 0.00142 KA relative to UGCAUGU; for B29 it is 0.00102 KA relative to UGCAUGU; for B30 it is 0.0227 KA relative to UGCAUGU. The figure for B31 is 0.0339 KA relative to UGCAUGU.
